According to PubChem BioAssay AID686978 (National Center for Advancing Translational Sciences (NCATS), 2013):
Values joined by “and” are separate entries in the source; they are usually repeats but may differ in a detail not shown here. Equal entries are not always repeated. In all, about 420,000 compounds went through this assay and about 64,000 (15%) were called active. The shares of active, inactive and inconclusive entries below differ from those in the screen. Calls follow the shape of the dose curve; as a rule, active = well fitted inhibition curve with a large enough effect; inconclusive = small, poorly fitted or top-dose-only effect; inactive = flat fitted curve, though single readings scatter. Potencies beside an inconclusive call are fits to weak or partial responses and may not hold up.

Test: qHTS for Inhibitors of human tyrosyl-DNA phosphodiesterase 1 (TDP1): qHTS in cells in absence of CPT; also: nearly all actives have a fitted effect of over 55% in size
Details: DT40 Tdp1-/- hTDP1 cells, no CPT, ATP luminescence, 48 h; activity change, negative = growth inhibition: at 46.2 µM (top of the series)
Summary of the method: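 Cells were dispensed at 400 per well, compounds added by pin tool, plates incubated ≥48 hr at 37 °C, then CellTiter-Glo added for 30 min at room temperature before luminescence reading. Line: DT40 Tdp1-/- complemented with hTDP1; camptothecin omitted.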
% is scaled to controls: 0 for no effect and ±100 for the full control effect; potency is read from the fitted curve at half-maximal effect; tags tell the direction and shape of the fitted curve.

SMILES | activity change, negative = growth inhibition | Potency
COc1ccc(NC(=O)O/N=C/c2ccc(Br)cc2)cc1 | inactive: -17.9% | –
CCc1nc(SCC(=O)NC2CCCC2)c2c(=O)n(C)c(=O)n(C)c2n1 | inactive: -9.34% | –
O=C1/C(=C/c2ccncc2)CCc2ccccc21 | – | active: 23.1 µM
COc1ccc2ccccc2c1/C=N/NC(=O)c1sc(N)c(C#N)c1C | – | inconclusive: 29.1 µM [inhibitor, single point]
COc1ccc(-c2noc(CSc3nnc(C)n3-c3ccc(C)cc3)n2)cc1OC | – | inconclusive: 29.1 µM [inhibitor, single point]
CN1C(=O)Cc2cc(S(=O)(=O)NCCc3ccc(Cl)cc3)ccc21 | – | inconclusive: 29.1 µM [inhibitor, single point]
O=C(NCc1ccc(F)cc1)Nc1nnc([C@H]2C[C@H](O)[C@@H](CO)O2)s1 | inactive: -1.82% | –
O=c1cc(-c2cccc(Br)c2)nc(-c2ccccc2F)o1 | – | active: 18.4 µM
Cn1ccnc1SCC(=O)c1cccc(C(F)(F)F)c1 | inactive: -21.4% | –
CC(=O)Nc1cc(-c2cccc(C(=O)N(C)C)c2)cn2c(-c3cccc(C(=O)N(C)C)c3)cnc12 | – | inconclusive: 29.1 µM [inhibitor, single point]
CC(c1ccccc1F)n1cc(C(=O)NCCc2ccco2)nn1 (stereo not given) | – | active: 18.4 µM
COc1cccc(Nc2nc(-c3ccccc3O)nc3ccccc23)c1 | – | inconclusive: 23.1 µM [inhibitor, single point]
O=S(=O)(NC1CC1)c1ccc(Cl)cc1 | inactive: 1.98% | –
Cc1sc2nc(CN3CCOCC3)[nH]c(=O)c2c1-c1ccccc1 | inactive: -17.4% | –
O=C(CSCc1cnn(-c2ccccc2)c1-n1cccc1)NCc1ccc(Cl)cc1 | – | inconclusive: 23.1 µM [inhibitor, single point]
CCCOc1ccc(NC(=O)CC2C(=O)N(c3cccc(OC)c3)C(=O)N2Cc2cccs2)cc1 (stereo not given) | – | active: 20.6 µM
NC(=O)C1(N2CCCCC2)CCN(CC(=O)Nc2ccccc2-c2ccccc2)CC1 | – | inconclusive: 29.1 µM [inhibitor, single point]
Cc1ccccc1-c1nc(CSc2nc3c(c(=O)[nH]2)CCC3)c(C)o1 | – | inconclusive: 25.9 µM [inhibitor, single point]
CN(C)CCCN(C(=O)c1ccc([N+](=O)[O-])s1)c1nc2cc3c(cc2s1)OCCO3 | – | active: 3.26 µM
Cc1ccccc1Nc1nn2c(=O)c3ccccc3nc2s1 | – | inconclusive: 25.9 µM [inhibitor, partial curve]
COc1ccccc1Nc1nc2nonc2nc1N1CCCCC1C (stereo not given) | – | inconclusive: 23.1 µM [inhibitor, single point]
COc1ccc(CNS(=O)(=O)c2cc(CN3C(=O)c4cccnc4C3=O)ccc2OC)cc1 | inactive: -0.456% | –
COc1ccc(NC(=O)C2C3C=CC(C3)C2C(=O)NCc2ccccn2)c(OC)c1 (stereo not given) | – | inconclusive: 23.1 µM [inhibitor, single point]
Cc1cc(C=O)c(C)n1-c1ccc(N2CCOCC2)c([N+](=O)[O-])c1 | – | inconclusive: 8.2 µM [inhibitor, partial curve]

SMILES | activity change, negative = growth inhibition | Potency
COc1ccc(S(=O)(=O)NCC(c2ccc(F)cc2)N2CCOCC2)cc1Br (stereo not given) | – | inconclusive: 29.1 µM [inhibitor, partial curve, poor fit]
CCOc1ccccc1NC(=S)N1C2CCC1CC(NC(=O)NC13CC4CC(CC(C4)C1)C3)C2 (stereo not given) | – | inconclusive: 10.3 µM [inhibitor, partial curve]
CCC(C)Sc1cccc(-c2nc3cc(C)ccn3c2NC2CCCCC2)c1 (stereo not given) | – | active: 16.4 µM and active: 14.6 µM
CN1CCN(c2cccc3c2S(=O)(=O)N[C@@H](Cc2ccccc2)CO3)CC1 | – | inconclusive: 18.4 µM [inhibitor, single point]
CC1CCCN(CCOc2cccc(Oc3ccccc3)c2)C1 (stereo not given) | – | inconclusive: 29.1 µM [inhibitor, single point]
CCOC(=O)N1CCN(c2ccc([N+](=O)[O-])cc2F)CC1C (stereo not given) | – | inconclusive: 16.4 µM [inhibitor, single point]
NC(=O)c1ccccc1NC(=O)Nc1ccc(F)c(Cl)c1 | – | inconclusive: 20.6 µM [inhibitor, single point]
Clc1ccc(CSc2nnc(-c3ccncc3)s2)cc1 | inactive: -23.5% | –
Cc1csc(NC(=O)C2CCN(S(=O)(=O)c3ccccc3)CC2)n1 | – | inconclusive: 25.9 µM [inhibitor, single point]
S=C(NC1CC1)N1CCN(c2ccc(Cl)cc2)CC1 | – | inconclusive: 29.1 µM [inhibitor, single point]
Cc1nc2ccn(Cc3ccccc3)c(=O)c2cc1C(=O)N1CCN(c2ccccc2F)CC1 | – | inconclusive: 23.1 µM [inhibitor, single point]
CC(C)C[C@@H]1Cc2[nH][nH]c(=O)c2[C@H](CCc2ccccc2)O1 | – | inconclusive: 25.9 µM [inhibitor, single point]
Cc1cc(F)ccc1S(=O)(=O)Nc1ccc2oc3c(c2c1)CC(C)CC3 (stereo not given) | – | inconclusive: 20.6 µM [inhibitor, single point]
CC(C)(C)NC(=O)CN(CCN1CCOCC1)C(=O)CNS(=O)(=O)c1ccccc1 | inactive: -0.428% | –
CCCCn1nnnc1-c1nc2ccccc2[nH]c1=O | inactive: -33.4% | –
COc1ccc(-c2csc(Nc3ccc(O)cc3)n2)cc1 | – | active: 6.51 µM
ON(CCc1ccncc1)Cc1ccccc1 | – | inconclusive: 13 µM [inhibitor, partial curve, poor fit]
CC(OC(=O)c1cc(S(=O)(=O)N2CCOCC2)ccc1F)C(=O)NCC1CCCCC1 (stereo not given) | – | inconclusive: 11.6 µM [inhibitor, partial curve]
COc1ccc2[nH]cc(CCNc3cc(-c4ccccc4Cl)ncn3)c2c1 | – | active: 3.66 µM
O=C(/C=C/c1cccc(C(F)(F)F)c1)Nc1cccc(C(F)(F)F)c1 | – | active: 23.1 µM
CCOC(=O)[C@H]1[C@H]2COc3ccc(C)cc3[C@@H]2N2C(=O)CN(Cc3ccc(C)cc3)C(=O)[C@@]12C | – | inconclusive: 25.9 µM [inhibitor, single point]
COC(=O)C1(C(=O)OC)C[C@H](c2ccc(OC)cc2)N(Cc2ccccc2OC)[C@@H]1c1ccc(OC)cc1 | – | active: 20.6 µM
COc1ccc(C(=O)COC(=O)C2CC3CCCC(C2)C3=O)cc1Br (stereo not given) | inconclusive: -30.2% [inhibitor] | –
COc1cccc(CN2CC(C(=O)NCc3cnn(C)c3)CCC2=O)c1 (stereo not given) | inactive: -2.42% | –

SMILES | activity change, negative = growth inhibition | Potency
Cn1nnc2cc(C(=O)Nc3ccc(Cl)cc3)ccc21 | – | inconclusive: 16.4 µM [inhibitor, single point]
COCc1cc(C)nc2sc(C(=O)Nc3ccccc3OC)c(N)c12 | – | inconclusive: 25.9 µM [inhibitor, single point]
CCc1nc2sc3c(c2c(=O)n1N)CCC3 | – | inconclusive: 23.1 µM [inhibitor, single point]
CCOC(=O)c1csc(NNC=O)n1 | inactive: -4.18% | –
CC(C)c1nc2ccccc2n1CC(O)COC1CCCCC1 (stereo not given) | – | active: 16.4 µM
O=C(Cc1ncc(C(F)(F)F)cc1Cl)NCc1ccco1 | inactive: -16.8% | –
O=[N+]([O-])c1ccc(S(=O)(=O)N2CCN(Cc3c[nH]c4ccccc34)CC2)cc1 | – | inconclusive: 13 µM [inhibitor, partial curve]
O=C(COc1ccccc1)NCCc1nc2ccccc2[nH]1 | inactive: 0.1% | –
CCCC(=O)N1CCN(S(=O)(=O)c2cc(Cl)ccc2OC)CC1 | – | inconclusive: 11.6 µM [inhibitor, partial curve]
O=C(Nc1ccccc1F)Nc1ccc([N+](=O)[O-])cc1Cl | – | inconclusive: 29.1 µM [inhibitor, single point]
CCCCN1C(=O)C(CC(=O)NC2CCCCC2)CC(C(=O)N(C(C)C)C(C)C)=C1C (stereo not given) | – | inconclusive: 20.6 µM [inhibitor, single point]
COc1ccccc1-n1cnc2sc(-c3ccccc3)cc2c1=O | – | active: 11.6 µM
COCc1nnc(NC(=O)CCS(=O)(=O)c2ccccc2)s1 | – | active: 16.4 µM
CC(C)N1CCN(S(=O)(=O)c2ccccc2)c2ccccc21 | – | inconclusive: 23.1 µM [inhibitor, single point]
Cc1cc(C)c(S(=O)(=O)Nc2cccc(C(F)(F)F)c2)c(C)c1 | – | inconclusive: 21.1 µM [inhibitor, partial curve, poor fit] and inconclusive: 22.4 µM [inhibitor, partial curve, poor fit]
COc1cc2c(-c3ccc4c(c3)OCO4)c(-c3ccsc3)oc(=O)c2cc1OC | – | inconclusive: 20.6 µM [inhibitor, single point]
O=C(Nc1nnc(S(=O)(=O)N2CCCc3ccccc32)s1)c1ccccc1Cl | – | inconclusive: 29.1 µM [inhibitor, single point]
COc1ccc(NS(=O)(=O)c2ccc(C)c(C(=O)NCC(c3cccs3)N3CCOCC3)c2)cc1 (stereo not given) | – | inconclusive: 16.4 µM [inhibitor, single point]
COc1ccccc1CCc1nnc(CCC(=O)N(C)Cc2ccncc2C)o1 | – | inconclusive: 9.2 µM [inhibitor, partial curve, poor fit]
Clc1cccc(-c2nc(NCCN3CCOCC3)c3ccccc3n2)c1 | – | inconclusive: 20.6 µM [inhibitor, single point]
C=CCNC(=O)COC(=O)c1c2c(nc3ccccc13)CCC2 | – | inconclusive: 13 µM [inhibitor, partial curve, poor fit]
O=C(NC1CCCCC1)C(c1ccncc1)N(Cc1ccc2c(c1)OCO2)C(=O)c1cnsn1 (stereo not given) | – | inconclusive: 18.4 µM [inhibitor, partial curve, poor fit]
